Screen size: about 120,000 compounds; about 5,300 (4.4%) were called active. The shares of active, inactive and inconclusive entries below differ from those in the screen. The call rests on the fitted dose curve; in most records, active means well fitted inhibition curve with a large enough effect; inconclusive means small, poorly fitted or top-dose-only effect; inactive means no such curve, though single readings can be large or run the other way. A potency beside an inconclusive call is a rough fit, not a confirmed value.
Assay: qHTS Primary assay for Inhibitors of Plasmodium falciparum Dd2 growth in vitro; further: nearly all actives have a fitted effect of over 65% in size;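 on activity, negative = inhibition: plate controls were DMSO vehicle for no effect and reference drug for full effect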
Conditions: P. falciparum Dd2 growth, SYBR Green, 72 h; activity, negative = inhibition: at 28.9 µM (top of the series) unless noted; series mostly up to 28.9 µM
Method in brief: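 Infected erythrocytes (Dd2, 0.3% parasitemia, 2.5% hematocrit final) are added to compound in RPMI-1640/Albumax II medium, grown 72 h at 37C in low oxygen, then lysed with saponin/Triton-X containing SYBR Green and read by fluorescence.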
Potency means the concentration at half of the fitted maximal effect; tags describe the fitted curve by direction and shape.

Row | Compound | Potency | activity, negative = inhibition
1 | COc1cccc(CCC(=O)NCCC2CCN(C(=O)Nc3cccc(F)c3)CC2)c1 | inconclusive: 12.6 µM [inhibitor, single point] | 
2 | CC(=O)NCCC(=O)N1Cc2ccccc2CC2(CCCN2CC2CCNC2)C1 (stereo not drawn) |  | inconclusive: -127% [inhibitor]
3 | CCOc1ccc(OCC)c(NC(=O)c2c(C)nn(-c3ccccc3)c2-n2cccc2)c1 | inconclusive: 17.8 µM [inhibitor, single point] | 
4 | O=c1c2c(CO)c(-c3ccccc3)nn2ccn1Cc1ccccc1 | inactive | 
5 | O=C([C@@H]1C[C@H](Oc2ccccc2)CN1S(=O)(=O)c1cccc(F)c1)N1CCOCC1 | inactive | 
6 | COc1ccc(Br)cc1CNC(=O)c1ccc(-n2c(C)cc3c2CCC(C)C3)cc1 (stereo not drawn) | active: 12.6 µM | 
7 | CCOc1ccccc1N1CCN(c2ncncc2-c2nc(-c3ccccc3)no2)CC1 | inconclusive: 3.98 µM [inhibitor, single point] | 
8 | Cc1cc(O)c(CN2CCN(c3ccc(F)cc3)CC2)c2oc(=O)cc(C)c12 | active: 11.2 µM | 
9 | COc1cc(NC(=O)Cn2c(-c3ccc(F)cc3)nc(C)c(CCO)c2=O)cc(OC)c1 | active: 11.2 µM | 
10 | CCCN(C(=O)Cn1nc(Cc2ccncc2)c2ccccc2c1=O)c1ccccc1C | inconclusive: 17.8 µM [inhibitor, single point] | 
11 | O=C(Nc1ccc2c(c1)OCCO2)N1CCC(Cc2nc(-c3ccncc3)n[nH]2)C1 (stereo not drawn) | inconclusive: 1.12 µM [inhibitor, partial curve] | 
12 | C[S+](=O)([O-])c1ccc(-c2cnc3n[nH]c(-c4ccc5c(c4)OCO5)c3n2)cc1 | inconclusive: 2.82 µM [inhibitor, single point] | 
13 | Cc1ccc(-c2cn3c(n2)N(C(=O)c2nc4ncccn4n2)CCC3)cc1 | inconclusive: 1.78 µM [inhibitor, single point] | 
14 | C[C@@H]1CN(C(=O)CCc2cnccn2)C[C@@]1(O)C1CC1 | inactive | 
15 | COc1ccc(C(=O)Nc2ncc(-c3cccc(N(C)C)c3)c3c2OCC3)cc1 | inactive | 
16 | COc1ccc(Nc2cc(C(=O)NCCCN(C)C3CCCCC3)c3ccccc3n2)cc1 | active: 5.62 µM | 
17 | CCc1noc(-c2cccn3c(CNC(=O)c4cc(C)ccc4C)nnc23)n1 | inconclusive: 0.251 µM [inhibitor, partial curve, poor fit] | 
18 | CCn1c(CN2CCN(C)CC2)nc2cc(NC(=O)c3cc(OC)c(OC)c(OC)c3)ccc21 | inconclusive: 8.91 µM [inhibitor, partial curve, poor fit] | 
19 | Cn1nc(-c2nncn2CC2CC2)c2c1CCN(C(=O)CC1CCCC1)C2 | inconclusive: 5.01 µM [inhibitor, partial curve] | 
20 | Cc1ccc2nc(C3CCCN(CC(C)C)C3)[nH]c(=O)c2c1 (stereo not drawn) | inconclusive: 12.6 µM [inhibitor, partial curve, poor fit] | 
21 | CCOc1ccccc1C(=O)NCC(c1ccc(N(C)C)cc1)N1CCCC1 (stereo not drawn) | inconclusive: 5.01 µM [inhibitor, partial curve] | 

Row | Compound | Potency | activity, negative = inhibition
22 | Cc1ccc(Cl)cc1N(C)C(=O)c1cc2ccc3cccnc3c2[nH]1 | inconclusive: 11.2 µM [inhibitor, single point] | 
23 | CCOc1ccccc1NC(=O)C1CCc2ncc(-c3ccsc3)n2C1 (stereo not drawn) | inactive | 
24 | CN1[C@@H](CCC(=O)N2CCc3ccccc32)CNC(=O)[C@@H]2[C@H]1CCN2Cc1cccs1 | inconclusive: 17.8 µM [inhibitor, single point] | 
25 | O=C(NC[C@H]1COCc2nc3cc(C(F)(F)F)ccc3n21)c1cccnc1 | inactive | 
26 | COC(=O)c1ccc(NC(=O)c2c(NCc3ccc(OC)c(OC)c3)sc3c2CCCC3)cc1 | active: 11.2 µM | 
27 | CCOc1ccccc1CNC(=O)CN1C(=O)C2CCCCN2c2ccc(C(=O)N(C)C)cc21 (stereo not drawn) | inconclusive: 7.94 µM [inhibitor, single point] | 
28 | COCc1nc(NCCc2nc3ccccc3s2)cc(C2CC(N)C2)n1 (stereo not drawn) | inactive | 
29 | CCc1cccc(NC(=O)c2ccc3c(c2)N(CC)C2CCCCN2C3=O)c1 (stereo not drawn) | active: 4.47 µM | 
30 | COc1cccc(CNC(=O)N[C@@H]2CN(Cc3ccncc3)C[C@H]2CN(C)C)c1 | inconclusive: 1.12 µM [inhibitor, partial curve] | 
31 | O=C(Nc1ccc(Oc2ccccc2)cc1)O[C@@H]1CO[C@H]2[C@@H]1OC[C@@H]2NC(=O)c1ccccn1 | inconclusive: 7.08 µM [inhibitor, partial curve, poor fit] | 
32 | CCN1c2cc(C(=O)Nc3ccc(F)c(Cl)c3)ccc2C(=O)N2CCCCC21 (stereo not drawn) | inconclusive: 3.98 µM [inhibitor, single point] | 
33 | CCN(CC)C(=O)C1CCCN(c2ncnc3c2nc2n3CCCCC2)C1 (stereo not drawn) | inconclusive: 11.2 µM [inhibitor, single point] | 
34 | COc1cccc(CN2CCOC3CCN(Cc4ccc(F)cc4F)CC3C2=O)c1 (stereo not drawn) | inconclusive: 35.5 µM [inhibitor, single point] | 
35 | O=C1[C@@H]2C[C@@H](O)CN2C2(CN(Cc3cccnc3)C2)C(=O)N1Cc1cccc(Cl)c1 | inactive | 
36 | CN(Cc1cn[nH]c1-c1ccccc1)CC1CCCN(CCc2ccc(F)cc2)C1 (stereo not drawn) | inconclusive: 2.82 µM [inhibitor, single point] | 
37 | Cc1noc(C2CC3(CCN(C(=O)CCc4c[nH]c5ccccc45)CC3)CN2C)n1 (stereo not drawn) | inconclusive: 7.94 µM [inhibitor, single point] | 
38 | COc1ccccc1OCCNC(=O)c1cc2n(n1)CC(c1ccc(Cl)cc1)OC2 (stereo not drawn) | inactive | 
39 | CC(=O)Nc1ccc(CN2CCC3(CC2)CNc2ccccc2[S+](=O)([O-])N3)cc1 | inconclusive: 1.26 µM [inhibitor, full curve] | 
40 | Cc1ccnc(N2CCC(O)(c3ccc(F)cc3)CC2)n1 | inactive | 
41 | O=C1c2c(nc(COc3ccc(F)cc3F)n2Cc2ccccc2)NCCN1CCOc1ccccc1 | inconclusive: 15.8 µM [inhibitor, partial curve, poor fit] | 
42 | COc1ccc(CN2C(=O)[C@@H]3C[C@@H](CN3C3COC3)Oc3ccccc32)cc1 | inconclusive: 31.6 µM [inhibitor, single point] | 

Row | Compound | Potency | activity, negative = inhibition
43 | COc1ccc(NC(=O)N[C@H]2[C@H](O)[C@@H](N3CCC(C(N)=O)CC3)[C@@H]3OC[C@H]2O3)cc1 | inactive | 
44 | CC1(c2ccccc2)N(Cc2ccccc2)C(=O)OC12CCN(Cc1ccc(O)cc1)CC2 (stereo not drawn) | inconclusive: 2.51 µM [inhibitor, full curve, poor fit] | 
45 | Cc1nc(CN2C(=O)OC3(CCN(C(=O)c4cccc(C#N)c4)CC3)C2(C)c2ccccc2)cs1 (stereo not drawn) | inconclusive: 4.47 µM [inhibitor, partial curve, poor fit] | 
46 | COCCNC(=O)C(C)[C@@H]1CC[C@@]2(C)CC[C@H](NC(=O)c3cnccn3)[C@@H](C)[C@@H]2[C@H]1O (stereo partly drawn) | inconclusive: 17.8 µM [inhibitor, partial curve, poor fit] | 
47 | CN(CC1CCCN(CCc2ccc(Cl)cc2)C1)C(=O)c1ccc(-n2cnnn2)cc1 (stereo not drawn) | inconclusive: 15.8 µM [inhibitor, partial curve, poor fit] | 
48 | CC(=O)N1CCC(Cc2ccc(C(=O)Nc3ccc(C)cc3)cc2)CC1 | inconclusive: 0.708 µM [inhibitor, partial curve, poor fit] | 
49 | COc1ccc(CN2CCC(C3CCN(C(C)=O)CC3)C2)c(Cl)c1OC (stereo not drawn) | inconclusive: 11.2 µM [inhibitor, single point] | 
50 | COCCN(CCOC)CC[C@@H]1CC[C@H](O)[C@@H](C(=O)NCc2ccc(OC)cc2)O1 | inactive | 
51 | CN1C[C@@H](NS(=O)(=O)c2ccc(C#N)cc2)C[C@H]1c1nc(-c2ccc(Cl)cc2)no1 | inconclusive: 8.91 µM [inhibitor, partial curve, poor fit] | 
52 | CCc1cccc(C)c1Nc1c(-c2cccc(O)c2)nc2sccn12 | inconclusive: 0.0079 µM [inhibitor, full curve, poor fit] | 
53 | COc1cccc(C(=O)N2CC(Oc3ccccc3-c3nc(-c4ccccc4)no3)C2)c1 | inconclusive: 7.08 µM [inhibitor, partial curve, poor fit] | 
54 | O=S(=O)(c1cccc(Cl)c1)c1nnn2c1nc(NC1CCCC1)c1sccc12 | active: 12.6 µM | 
55 | O=C1NC2(CCCN(Cc3ccsc3)C2)Oc2ccccc21 (stereo not drawn) | inconclusive: 3.16 µM [inhibitor, partial curve] | 
56 | COC(=O)c1ccc(NC(=O)C2CCN(S(=O)(=O)c3ccc4c(c3)CCCN4C(C)=O)CC2)cc1 | inconclusive: 10 µM [inhibitor, single point] | 
57 | CCc1nnc2n1N(C(C)=O)C(c1ccc(C(C)(C)C)cc1)=C(C(C)=O)S2 | active: 3.16 µM | 
58 | CN(C)CCNC(=O)c1n[nH]c2c1CN(C(=O)c1cc(F)ccc1F)CC2 | inactive | 
59 | O=c1oc2ccc3ccccc3c2cc1-c1nnc(Nc2cc(C(F)(F)F)ccc2Cl)s1 | inactive | 
60 | Cc1ccccc1N1Cc2c(ncnc2N2CCN(Cc3ccccc3)CC2)N(C)CC1=O | inconclusive: 17.8 µM [inhibitor, single point] | 
61 | COc1ccc(-c2cc(N3CCC(NC(=O)C4(c5ccccc5)CC4)CC3)n[nH]2)cc1 | inconclusive: 0.891 µM [inhibitor, partial curve] | 
62 | CCC(O)c1nc2ccccc2n1CCOc1cc(C)cc(C)c1 (stereo not drawn) | inconclusive: 8.91 µM [inhibitor, partial curve, poor fit] | 
63 | Cc1ccc(CNC(=O)N[C@@H]2CN(Cc3cccnc3)C[C@H]2CN(C)C)cc1 | inconclusive: 5.01 µM [inhibitor, partial curve, poor fit] | 
